Assay results from PubChem BioAssay AID2100 (National Center for Advancing Translational Sciences (NCATS), 2009).
The campaign covered roughly 300,000 compounds. About 1,200 (0.4%) were called active. Inconclusive means that the source gave no clear call. Such entries were picked first, then a sample of the others. Calls come from the whole dose curve; as a rule, active = well fitted inhibition curve with a large enough effect; inconclusive = small, poorly fitted or top-dose-only effect, or another doubt; inactive = no such curve, though single readings can be large or run the other way. Potencies beside an inconclusive call are fits to weak or partial responses and may not hold up.

What follows are compounds tested against Lysosomal alpha-glucosidase (Homo sapiens) (UniProt P10253) (assay: qHTS Assay for Inhibitors and Activators of Human alpha-Glucosidase Cleavage of Glycogen). Details: recombinant GAA, glycogen substrate, Amplex Red glucose oxidase fluorescence; activity change, negative = inhibition: at 76.4 µM (top of the series) unless noted.
How it was run: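 Natural-substrate format: glycogen cleavage by 4 nM human enzyme, glucose read by Amplex Red coupling (Ex 573, Em 610 nm). Normalized to enzyme and no-enzyme controls.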
Potency is the fitted concentration of half-maximal effect.
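Throughout, for activity change, negative = inhibition: 0% = full enzyme reaction and -100% = no-enzyme basal signal.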

Row | SMILES | activity change, negative = inhibition | Potency
1 | CCCCn1c2nc3ccccc3nc2c2c(=O)n(CCC(C)C)cnc21 | inactive: 4.27% | 
2 | COc1cc(C2Nn3c(nnc3-c3ccccc3OC)S2)ccc1O (stereo not drawn) |  | inconclusive: 35.5 µM [inhibitor, single point]
3 | CC(C)(C)NC(=O)COc1ccc(CNc2ccc3[nH]c(=O)[nH]c3c2)cc1 |  | inconclusive: 6.26 µM [inhibitor, partial curve]
4 | O=C(NNc1cccc(Cl)n1)Nc1ccccc1 |  | inconclusive: 28.2 µM [inhibitor, single point]
5 | O=c1cccccc1NN=C1CCCCC1 |  | inconclusive: 14.1 µM [inhibitor, partial curve]
6 | Cc1nc2c3ccccc3nc(NNC(=O)CCC(=O)N3CCN(c4cccc(Cl)c4)CC3)n2n1 |  | inconclusive: 14.1 µM [inhibitor, partial curve]
7 | Cc1cc(C)c(O)c(-c2cc(C(=O)NCc3ccccc3)[nH]n2)c1 |  | inconclusive: 39.5 µM [inhibitor, single point]
8 | CCC1=NN(C(=O)Cc2ccc([N+](=O)[O-])cc2)C(O)(C(C)(C)C)C1 (stereo not drawn) |  | inconclusive: 39.8 µM [inhibitor, partial curve]
9 | Cn1cccc1/C=C1\Cc2ccccc2C1=O | inactive: 5.62% | 
10 | C=CCc1c(C)[nH]c2c(OC)cccc2c1=S |  | inconclusive: 39.5 µM [inhibitor, single point]
11 | CC(=O)OCC1(C)CN(c2ccccc2)NC1=O (stereo not drawn) |  | inconclusive: 5.62 µM [inhibitor, full curve]
12 | COc1cc(/C=C/C(=O)c2ccc(C)c([N+](=O)[O-])c2)cc(OC)c1O |  | inconclusive: 17.8 µM [inhibitor, partial curve]
13 | Nc1cc(C(=O)O)ccc1N1CCCCCC1 |  | inconclusive: 50.1 µM [inhibitor, partial curve]
14 | Cc1ccc(NS(=O)(=O)c2cc3c4c(cccc4c2)C(=O)NC3=O)cc1C | inactive: -0.483% | 
15 | Cc1[nH]n(C2=NCCS2)c(=O)c1N=Nc1ccccc1 |  | inconclusive: 56.2 µM [inhibitor, single point]
16 | CCc1ccc(NC(=O)c2cnn(-c3ccccc3)c2-n2cccc2)cc1 |  | inconclusive: 63.1 µM [inhibitor, partial curve, poor fit]
17 | CCn1c(C)nc2cc(C(=O)N/N=C/c3cccc(O)c3O)ccc21 |  | inconclusive: 3.55 µM [inhibitor, full curve]
18 | Cc1ccc(N2CCN(C(=O)N3CCOCC3)CC2)cc1C |  | inconclusive: 28.2 µM [inhibitor, single point]
19 | COc1ccc(C2NN=C(c3c[nH]c4ccccc34)C2O)cc1 (stereo not drawn) |  | inconclusive: 22.2 µM [inhibitor, partial curve]
20 | CCCCN(Cc1ccco1)C(=O)Cn1ncc2c(=O)oc3ccc(C)cc3c21 |  | inconclusive: 5.62 µM [inhibitor, partial curve]
21 | CCN(CC)S(=O)(=O)c1ccc2c(c1)N(CC(=O)Nc1ccccc1F)C(=O)C1CCCN21 (stereo not drawn) |  | inconclusive: 6.31 µM [inhibitor, full curve]
22 | O=C(CSc1ccc2ccccc2c1)N1CCN(c2ccc(O)cc2)CC1 |  | active: 15.8 µM

Row | SMILES | activity change, negative = inhibition | Potency
23 | COC(=O)[C@H]1CCCN1C(=O)Nc1cccc(Oc2c(F)c(F)c(F)c(F)c2F)c1 |  | inconclusive: 9.92 µM [inhibitor, partial curve]
24 | C=C(C)C(=O)NC1=NN(c2ccccc2)C(=O)C1 |  | inconclusive: 22.2 µM [inhibitor, single point]
25 | NC(N)=NC(N)=Nc1ccc(O)cc1 |  | inconclusive: 12.5 µM [inhibitor, partial curve]
26 | CC(C)=NNc1nc2sc3c(c2c(=O)[nH]1)CC(C)(C)OC3 |  | inconclusive: 28 µM [inhibitor, single point]
27 | COc1ccc(-c2nc(C#N)c(NCC3CCCO3)o2)cc1OC (stereo not drawn) |  | inconclusive: 39.5 µM [inhibitor, single point]
28 | COc1ccccc1C1c2c(-c3ccc(Cl)cc3)n[nH]c2C(=O)N1c1ccc(C)cc1 (stereo not drawn) |  | inconclusive: 6.31 µM [inhibitor, full curve, poor fit]
29 | C=CCNC(=S)NNC(=O)c1csc(C)c1CC |  | inconclusive: 31.6 µM [inhibitor, single point]
30 | O=C(NNc1ccccc1)/C(=C\c1cccnc1)NC(=O)c1ccccc1 |  | inconclusive: 25.1 µM [inhibitor, partial curve]
31 | Cc1ccc(-n2nc(-c3ccccc3)cc2Nc2ccccc2N)cc1 |  | inconclusive: 15.8 µM [inhibitor, partial curve]
32 | CCn1c(SCC(=O)c2ccc(O)c(O)c2)nnc1-c1ccccc1OC |  | active: 24.9 µM
33 | O=c1cc(CN2CCN(c3ccccc3O)CC2)nc2sccn12 |  | active: 7.88 µM
34 | CC(C)(C)c1ccc(-c2nc(C#N)c(NCCCn3ccnc3)o2)cc1 |  | inconclusive: 35.5 µM [inhibitor, partial curve]
35 | CC(C)NC(=S)N/N=C1\CCCCc2ccccc21 |  | inconclusive: 31.4 µM [inhibitor, partial curve]
36 | CCOC(=O)COc1ccc(C2C(C(=O)OC)=C(C)NC3=C2C(=O)c2ccccc23)cc1Cl (stereo not drawn) |  | inconclusive: 7.08 µM [inhibitor, full curve]
37 | CC(C)/C=N/NC(=O)c1ccc(Cl)cc1 | inactive: 14.5% | 
38 | COc1cc(/C=N/NC(=O)CCn2cnc(-c3ccccc3)c2-c2ccccc2)ccc1O |  | inconclusive: 35.5 µM [inhibitor, partial curve]
39 | C=CCNC(=S)NNc1nc(N2CCCC2)nc(N2CCCC2)n1 |  | inconclusive: 15.8 µM [inhibitor, partial curve]
40 | C=C1c2cc3c(cc2NC(=S)N1Cc1ccccc1)OCO3 |  | inconclusive: 11.2 µM [inhibitor, partial curve]
41 | Cc1cc(=O)[nH]c(N/N=C/C=C/c2ccccc2)n1 |  | inconclusive: 1.78 µM [inhibitor, partial curve]
42 | COc1ccc(C(=O)NCCn2cc(SC(C)c3ccccc3)c3ccccc32)cc1OC (stereo not drawn) | inactive: -1.7% [at 76.3 µM] | 
43 | C(=N\Nc1ccccc1)/c1ccc(N2CCOCC2)cc1 |  | inconclusive: 28.2 µM [inhibitor, single point]
